Hit rate of the full screen: of about 310,000 compounds, about 2,200 (0.71%) showed an effect of 50% or more. Effects have a minus sign here. The list shows a part of the results.

Chain of human ether-à-go-go-related gene (hERG) potassium channel (Q12809 whole entry, looked up): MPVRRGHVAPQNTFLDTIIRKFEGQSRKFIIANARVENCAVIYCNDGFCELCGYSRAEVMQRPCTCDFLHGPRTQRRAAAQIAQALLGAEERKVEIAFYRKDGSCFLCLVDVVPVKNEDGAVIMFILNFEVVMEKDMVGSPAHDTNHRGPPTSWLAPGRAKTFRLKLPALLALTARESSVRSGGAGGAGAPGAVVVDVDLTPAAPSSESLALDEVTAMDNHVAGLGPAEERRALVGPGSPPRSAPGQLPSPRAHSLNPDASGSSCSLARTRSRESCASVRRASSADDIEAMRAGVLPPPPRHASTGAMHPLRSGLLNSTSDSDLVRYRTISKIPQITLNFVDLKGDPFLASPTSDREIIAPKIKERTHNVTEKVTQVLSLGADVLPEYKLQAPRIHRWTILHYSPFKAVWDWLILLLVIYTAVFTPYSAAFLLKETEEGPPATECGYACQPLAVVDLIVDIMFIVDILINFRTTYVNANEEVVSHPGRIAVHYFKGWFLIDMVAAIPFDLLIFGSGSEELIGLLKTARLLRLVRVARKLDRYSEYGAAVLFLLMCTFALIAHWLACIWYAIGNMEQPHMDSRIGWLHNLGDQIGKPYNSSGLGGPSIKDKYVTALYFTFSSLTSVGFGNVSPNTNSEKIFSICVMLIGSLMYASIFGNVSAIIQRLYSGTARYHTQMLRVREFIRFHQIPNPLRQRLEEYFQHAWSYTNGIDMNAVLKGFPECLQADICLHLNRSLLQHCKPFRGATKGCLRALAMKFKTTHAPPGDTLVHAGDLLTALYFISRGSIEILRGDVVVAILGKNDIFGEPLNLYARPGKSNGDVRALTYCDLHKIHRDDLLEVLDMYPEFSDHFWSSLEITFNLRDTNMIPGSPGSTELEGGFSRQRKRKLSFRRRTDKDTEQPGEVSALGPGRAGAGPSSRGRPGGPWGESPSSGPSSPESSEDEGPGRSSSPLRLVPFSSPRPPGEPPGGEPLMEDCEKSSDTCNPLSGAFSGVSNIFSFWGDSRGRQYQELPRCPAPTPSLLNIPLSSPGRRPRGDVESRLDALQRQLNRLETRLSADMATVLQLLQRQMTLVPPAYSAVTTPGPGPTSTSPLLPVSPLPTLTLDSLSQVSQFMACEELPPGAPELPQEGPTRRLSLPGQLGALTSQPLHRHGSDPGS

This assay concerns the target human ether-à-go-go-related gene (hERG) potassium channel (human, UniProt Q12809). The assay can be described thus: primary screen, population patch clamp on CHO cells stably expressing hERG.
For `Cn1c(SCc2ccc(Br)cc2)nc2c(c1=O)SCC2`, the “hERG current change (%, negative = inhibition) at 1uM” value worked out at 17.4%.

Regarding `CC(=O)Nc1ccc(S(=O)(=O)Nc2nc3ccccc3nc2N2CCc3ccccc3C2)cc1`, the “hERG current change (%, negative = inhibition) at 1uM” value worked out at 6.78%.

`CC(C)CN1CCN(Cc2nc3ccccc3s2)CC1CCO` (centres unmarked): the “hERG current change (%, negative = inhibition) at 1uM” value is -5.53%.

In the case of `O=S1(=O)CCN=C2SC3=C(CCCC3)N21`, the “hERG current change (%, negative = inhibition) at 1uM” value came to 9.27%.

For `Cc1ccc(C2/C(=C(/O)c3ccc4c(c3)CC(C)O4)C(=O)C(=O)N2CCCn2ccnc2)cc1` (centres unmarked), the “hERG current change (%, negative = inhibition) at 1uM” value was 18.8%.

For the compound `COCCN(Cc1cc2ccccc2[nH]c1=O)C(=O)c1ccccc1OC`, the “hERG current change (%, negative = inhibition) at 1uM” value is on record as -1.31%.

Turning to `CC(Oc1ccc2c3c(c(=O)oc2c1)CCC3)C(=O)NCC1CCC(C(=O)O)CC1` (centres unmarked), the “hERG current change (%, negative = inhibition) at 1uM” value was found to be 10.5%.

For the compound `C=CCNC(=O)Nc1ccc2oc(C)nc2c1`, the “hERG current change (%, negative = inhibition) at 1uM” value is listed as -0.0811%.

Turning to `CN(CC(=O)Nc1ccc(S(=O)(=O)N2CCCC2)cc1)Cc1ccc(Cl)cc1`, the “hERG current change (%, negative = inhibition) at 1uM” value stood at 13.3%.

As to `O=C(Nc1ccc(Br)cc1)C(c1ccccc1)c1ccccc1`, the “hERG current change (%, negative = inhibition) at 1uM” value came out at 13.9%.

For `CCOc1cc(NC(=S)NCC2CCCO2)c(OCC)cc1NC(=O)c1ccccc1C` (centres unmarked), the “hERG current change (%, negative = inhibition) at 1uM” value was -11%.

As for `CCc1c(C)nc(N2CCN(c3ccc(OC)cc3)CC2)[nH]c1=O`, the “hERG current change (%, negative = inhibition) at 1uM” value is recorded as 12.8%.

Consider `Cc1ccc(CNS(=O)(=O)c2ccc3oc(C(=O)O)c(C)c3c2)cc1`, for which the “hERG current change (%, negative = inhibition) at 1uM” value is reported as -1.47%.

Consider `COc1ccc(NC(=O)CSc2c3c(nc4ccccc24)CCC3)c(OC)c1`, for which the “hERG current change (%, negative = inhibition) at 1uM” value is -3.61%.

In the case of `CCc1nc2c(c(=O)c3ccccc3n2C)c(=O)n1C1CCCCCC1`, the “hERG current change (%, negative = inhibition) at 1uM” value amounted to 13.7%.

Consider `CCCCn1c(SCC(=O)NC2CC2)nnc1-c1ccncc1`, for which the “hERG current change (%, negative = inhibition) at 1uM” value is 12.4%.

Take `CC(C)C(c1nnnn1Cc1ccccc1)N(CCCO)Cc1cc2cc3c(cc2[nH]c1=O)OCO3` (centres unmarked): the “hERG current change (%, negative = inhibition) at 1uM” value turned out to be 10.4%.

Consider `COc1ccccc1N1CCN(C(=O)N2CCOCC2)CC1`, for which the “hERG current change (%, negative = inhibition) at 1uM” value is listed as 16.4%.

On to `COc1ccc(C)cc1S(=O)(=O)N1CCCC(C(=O)N2CCN(c3ccccc3F)CC2)C1` (centres unmarked), for which the “hERG current change (%, negative = inhibition) at 1uM” value is reported as -1.82%.

With `CCOC(=O)N1CCC(NC(=O)c2cc(COc3ccc(F)cc3Cl)on2)CC1`, the “hERG current change (%, negative = inhibition) at 1uM” value is -1.06%.

For the compound `CN(C)CCN1C(=O)C(=O)/C(=C(/O)c2ccc(F)cc2)C1c1ccccc1F` (centres unmarked), the “hERG current change (%, negative = inhibition) at 1uM” value is 14.2%.

With `C=CCN1C(=O)[C@@H]2Cc3c([nH]c4ccccc34)C(c3ccc(O)cc3)N2C1=S` (some centres unmarked), the “hERG current change (%, negative = inhibition) at 1uM” value worked out at 11.7%.

For the compound `O=C(NC1CCSc2ccccc21)c1ccc(F)c(S(=O)(=O)N2CCOCC2)c1` (centres unmarked), the “hERG current change (%, negative = inhibition) at 1uM” value came out at 13.3%.

`O=c1cc(N2CCC3(CC2)OCCO3)[nH]c(=O)n1-c1ccc(Cl)cc1`: the “hERG current change (%, negative = inhibition) at 1uM” value was -4.19%.

On to `COCCCN(C(=O)c1ccco1)c1nc(-c2ccc(OC)cc2)cs1`, for which the “hERG current change (%, negative = inhibition) at 1uM” value is given as 12.5%.

Consider `Cc1cc(C)n(-c2nc3ccccc3c(=O)n2OCC(C)C)n1`, for which the “hERG current change (%, negative = inhibition) at 1uM” value was 7.56%.

As to `CN(c1ccccc1)c1ccc(/C=C(\C#N)c2nnc3n2CCCCC3)cc1[N+](=O)[O-]`, the “hERG current change (%, negative = inhibition) at 1uM” value is listed as -4.69%.

For the compound `COc1cccc(CNC(=O)C2CCC(=O)N(CC3CCCCC3)C2)c1OC` (centres unmarked), the “hERG current change (%, negative = inhibition) at 1uM” value turned out to be 6.02%.

For `O=C(COC(=O)C1CC1)c1c[nH]c2ccccc12`, the “hERG current change (%, negative = inhibition) at 1uM” value was 5.49%.

For `Cc1cc(C)c2cc(C(O)c3nnnn3Cc3ccccc3)c(=O)[nH]c2c1` (centres unmarked), the “hERG current change (%, negative = inhibition) at 1uM” value is reported as -3.03%.

For the compound `C[C@@H](O)[C@H]1O[C@]2(C)CCC[C@H]1O2`, the “hERG current change (%, negative = inhibition) at 1uM” value is 11.1%.

`O=C(CN(Cc1ccccc1C(F)(F)F)C(=O)CNC(=O)c1ccco1)NC1CCCC1`: the “hERG current change (%, negative = inhibition) at 1uM” value amounted to 1.31%.

For `Cc1ccc(-c2csc3ncn(CC#N)c(=O)c23)cc1`, the “hERG current change (%, negative = inhibition) at 1uM” value was determined as 8.21%.

Take `Cc1cc(NC(=O)CCCOc2ccc(Cl)cc2Cl)no1`: the “hERG current change (%, negative = inhibition) at 1uM” value is 11.7%.

As for `CN(C)S(=O)(=O)c1ccc(NC(=S)NC(=O)Cc2ccccc2)cc1`, the “hERG current change (%, negative = inhibition) at 1uM” value is given as 13.1%.

`CCN=C1SC(C(=O)Nc2cccc(Cl)c2)CC(=O)N1CC` (centres unmarked): the “hERG current change (%, negative = inhibition) at 1uM” value is on record as -0.803%.

Regarding `CCN1C(=O)C2(C(C(=O)c3ccc(C)o3)=C(O)C(=O)N2CCCN(C)C)c2ccccc21` (centres unmarked), the “hERG current change (%, negative = inhibition) at 1uM” value is on record as 14%.

With `Cc1cc(C)c(S(=O)(=O)n2ccc3ccccc32)c(C)c1`, the “hERG current change (%, negative = inhibition) at 1uM” value is listed as 15.1%.

As for `CC(=O)O.NC1=NC(c2ccc(Br)cc2)n2c(nc3ccccc32)N1` (centres unmarked), the “hERG current change (%, negative = inhibition) at 1uM” value stood at 6.1%.

As for `C/C(=N\Nc1ccc(F)cc1)c1ccncc1`, the “hERG current change (%, negative = inhibition) at 1uM” value is on record as -2.2%.

As for `Cc1ccccc1C(=O)NCCCNC(=O)c1ccccn1`, the “hERG current change (%, negative = inhibition) at 1uM” value stood at 9.28%.

On to `O=C(O)c1cc(-c2ccccc2Cl)n(-c2ccc(F)cc2)n1`, for which the “hERG current change (%, negative = inhibition) at 1uM” value was found to be 13.9%.

Take `Cn1nnnc1Sc1ccc(C(=O)O)cc1[N+](=O)[O-]`: the “hERG current change (%, negative = inhibition) at 1uM” value is listed as 10.8%.

Regarding `CC(C)OC(=O)CCc1nc2ccccc2[nH]c1=O`, the “hERG current change (%, negative = inhibition) at 1uM” value came out at 16.2%.

The values above are taken from article PMC4336329 (PLoS ONE, 2015).
